Assay results published in PubChem BioAssay (NCI).
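Growth conditions: 96-well plates. Treatment: test compound, 48 hours, 5 concentrations. Analysis: linear interpolation between bracketing concentrations; unreached endpoints set to highest concentration. Here, GI50 denotes the concentration required for 50% inhibition of growth. TGI: concentration producing complete growth inhibition.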

System: NCI-H322M lung
Assay: growth of human tumour cells (NCI), 48 h

Row | Structure (SMILES) | GI50 [µM] | TGI [µM]
1 | COc1cc2cc(C(=O)N3C[C@@H](CCl)c4c3cc(OC(=O)N3CCN(C(=O)CCC(=O)N5CCN(C)CC5)[C@@H]5CSSC[C@@H]53)c3ccccc43)[nH]c2c(OC)c1OC | 0.0251 | 0.0973
2 | Cc1cccc(/C=C/c2ccc(NC(=S)NCCCCN(C)C)cc2)c1 | 14.9 | 28.4
3 | COc1ccc(CN2[C@H](C(=O)NCCCCCCC(=O)NO)Cc3c([nH]c4ccccc34)[C@H]2C2CC2)cc1 | 2.13 | 12.5
4 | CN(C)c1ccnc(NCCCSC(c2ccccc2)(c2ccccc2)c2ccccc2)c1 | 14 | 28.2
